Measurements published in the supplement of paper PMC10338343.
± gives the standard deviation. Only a part is listed here, and it is no random draw.

Tested on: MIWI (PIWIL1) piRISC loaded with piRNA #1 (30 nt)
Test: pre-steady-state target cleavage rate (min^-1); MIWI and MILI are mouse PIWI proteins and EfPiwi is from a freshwater sponge; tags in brackets are library labels; higher = faster piRNA-guided slicing of the target
Settings: guide: piRNA #1 5'p-UGAGGUAGUAGGUUGUAUAGUAUCCAGAGG; auxiliary factor: 500 nM mouse GTSF1
Outline: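 Active affinity-purified piRISC (1 nM) loaded with one synthetic guide was mixed with a transcribed, DNA-blocked target RNA library (0.1 nM), with or without 500 nM GTSF1 partner protein, in HEPES–potassium acetate buffer at 33 °C for 0–8 or 0–960 min. Uncleaved targets were sequenced, normalised to depth and to weakly complementary targets, and pooled across three trials, with k3 capped at 0.0001 min^-1. The pre-steady-state cleavage rate was determined with a burst-and-steady-state fit.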

Row | Sequence | pre-steady-state target cleavage rate
1 | GGAGAGCAUACAAUACAACCUACUACCUCA | 1.16 ± 0.11
2 | GGAGACCUUACUAUACAAGCUACUACGUCA | 0.761 ± 0.052
3 | GGACUGGAUACUACUACAACCUACUACCUCA | 1.48 ± 0.13
4 | GCUCUCGAUACUAUACAACCUACUAGCUCA | 0.779 ± 0.056
5 | CCUCUGGAUACUAUAGAACCUACUACCUGA | 0.158 ± 0.033
6 | GGAGAGCAUACUAUACAACCUAGUACCUCA | 0.331 ± 0.03
7 | GGAGACCAUACUAAACAAGCUACUACCUCA | 0.678 ± 0.056
8 | GGAGACCAUACUAUACAACCUACUACCCUCA | 1.13 ± 0.072
9 | GGAGAGGAUACUAUUGAACCUACUACCUCA | 0.773 ± 0.058
10 | GGACUAGGAUACUAUACAACCUACUACCUCA | 1.83 ± 0.12
11 | GGUCUGGAUAGUAUACAACCUACUACGUCA | 0.583 ± 0.055
12 | GGACUGGAUGACUAUACAACCUACUACCUCA | 1.29 ± 0.14
13 | GGAGACGAUACUAUACAACCUACUUCCUGA | 0.254 ± 0.067
14 | GGAGACCUAUCUAUUCAACCUACAACCUCA | 0.0157 ± 0.0039
15 | GGACUGGAUACUAUACAACAUACUACCUCA | 1.19 ± 0.077
16 | GGAGACCAAACUAUACAACCUACUACCUCA | 1.09 ± 0.16
17 | GGAGUGGAUACUUUACUACCUACUACCUCA | 0.884 ± 0.077
18 | GGAGAGGAUACUAUACAACCUAACUACCUCA | 0.0248 ± 0.0042
19 | GGAGUGGAUACUAUACAACCUACUUCCUCA | 0.0134 ± 0.0039
20 | GGAGACCUUACUAUACAACCUACAUACCUCA | 0.968 ± 0.12

Row | Sequence | pre-steady-state target cleavage rate
21 | GGAGUGGAUACUAUACAACGUACUACCUCA | 0.589 ± 0.031
22 | GGAGACCUAUGAUAUCAACCUACUAUCUCA | < 0.0001
23 | GGAGACCUAUCUAUACAACUACUACCUCA | 0.00254 ± 0.0024
24 | CCUCUGGAUACUAUCCAACCUACUACCUCA | 2.1 ± 0.14
25 | GGAGACGAUACUUAACAACCUACUACCUCA | 0.793 ± 0.068
26 | GGUCAGGAUACUAUACAAGCUACUACCUCA | 0.728 ± 0.035
27 | GGACUGGAUACUAUAGAACCUUCUACCUCA | 0.0567 ± 0.011
28 | GGAGACCUAACUUUACAACCUACUUCCUCA | 0.00752 ± 0.0055
29 | GGAGUGGAUACUAUACAACCUGACUACCUCA | 0.00293 ± 0.0026
30 | GGACUGGAUACUUAACAACCUACUACCUCA | 1.22 ± 0.13
31 | GGAGACCUAUGUAUACAACCUACAACGUCA | 0.00265 ± 0.002
32 | GGAGACCUUACUAAACAACCUUCUACCUCA | 0.127 ± 0.01
33 | CCUCUGGAUACAAUACAACCUUCUACCUCA | 0.672 ± 0.043
34 | GGAGAGGAUACUAUACAACCUACUACGAGA | 0.0895 ± 0.04
35 | GGAGACGAUACUUUACAUCCUACUACCUCA | 1.14 ± 0.076
36 | GGAGAGGAUACUAAACAACCAACUACCUCA | 0.0998 ± 0.0098
37 | GGAGACCUAUGUAUACAAGCUACUUCCUCA | 0.00535 ± 0.0024
38 | GGAGUGGAUACUACACAACCUACUACCUCA | 1.71 ± 0.097
39 | GGUCUGGAUACAAUACAACCAACUACCUCA | 0.112 ± 0.013
40 | GGUCUGGAUACUAUAGAACCUACUACCUGA | 0.0516 ± 0.014
